Data from PMC5501724, “Structural Basis for Specific Interaction of TGFβ Signaling Regulators SARA/Endofin with HD-PTP” (Structure(London, England:1993), 2017).
Results are given in words; binding and its absence hold for the method and conditions named. For part of these data: In cells and extracts the contact can be indirect. Some results given as binding are weak or reduced against the parent protein; the word gives no strength. For part of these data: Tags and fused reporters may be left off the sequences shown. Each block holds one molecule with its values, some of them ahead of it.

Protein sequences, listed by entry. Tags and fused reporters are not part of them. Residues count along the entry.
UniProt Q8WUM4, residues 1-359: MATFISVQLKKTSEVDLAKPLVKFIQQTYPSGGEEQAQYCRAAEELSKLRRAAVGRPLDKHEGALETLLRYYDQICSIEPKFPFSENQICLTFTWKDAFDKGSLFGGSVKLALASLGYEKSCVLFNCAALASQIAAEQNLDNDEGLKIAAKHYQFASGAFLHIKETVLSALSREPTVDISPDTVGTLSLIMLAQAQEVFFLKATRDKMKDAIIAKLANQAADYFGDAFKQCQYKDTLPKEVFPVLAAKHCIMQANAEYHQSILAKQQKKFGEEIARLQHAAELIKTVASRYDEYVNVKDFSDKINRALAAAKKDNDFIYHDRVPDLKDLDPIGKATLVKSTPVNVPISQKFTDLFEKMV

How the values were obtained:
[1] = molecular target: HD-PTPFL (full-length), yeast two-hybrid construct (human) (UniProt Q9H3S7); assay: two-hybrid; directed yeast two-hybrid, Clontech Matchmaker Gold, Y2H Gold strain; interactions selected on QDO plates with 0.4% glucose and 1% galactose; in triplicate
[2] = molecular target: T1, HD-PTP_(Bro1-CC), yeast two-hybrid construct (human) (UniProt Q9H3S7); assay: as above
T1 sequence: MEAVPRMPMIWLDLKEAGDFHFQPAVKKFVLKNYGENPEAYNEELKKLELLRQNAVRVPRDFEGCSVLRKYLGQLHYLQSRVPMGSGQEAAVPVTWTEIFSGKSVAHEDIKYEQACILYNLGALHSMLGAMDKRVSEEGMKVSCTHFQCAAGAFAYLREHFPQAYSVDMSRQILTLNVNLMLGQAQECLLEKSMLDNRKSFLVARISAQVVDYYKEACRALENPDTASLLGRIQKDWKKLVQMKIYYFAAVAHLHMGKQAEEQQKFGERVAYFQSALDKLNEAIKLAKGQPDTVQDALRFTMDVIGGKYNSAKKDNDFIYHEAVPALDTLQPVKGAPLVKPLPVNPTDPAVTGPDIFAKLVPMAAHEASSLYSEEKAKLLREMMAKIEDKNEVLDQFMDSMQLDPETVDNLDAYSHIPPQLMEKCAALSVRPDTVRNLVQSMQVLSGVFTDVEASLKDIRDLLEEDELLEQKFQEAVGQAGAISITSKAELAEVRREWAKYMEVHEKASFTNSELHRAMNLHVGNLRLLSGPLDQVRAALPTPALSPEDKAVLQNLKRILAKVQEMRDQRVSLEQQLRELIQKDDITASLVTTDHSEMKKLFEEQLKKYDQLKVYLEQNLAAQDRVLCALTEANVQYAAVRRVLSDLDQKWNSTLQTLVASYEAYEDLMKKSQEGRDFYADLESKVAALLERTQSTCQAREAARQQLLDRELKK

HD-PTP-myc (human) = HD-PTP-myc (human) (UniProt Q9H3S7); assay: co-IP; co-expressed HD-PTP and endofin/SARA (Figure S1B); HD-PTP-myc/endofin-Strep IP from HeLa cells stably expressing HD-PTP-myc induced with doxycyclin
His6-Alix_(Bro1) (1-359) = His6-Alix_(Bro1) (1-359) (UniProt Q8WUM4); assay: SPR; ProteOn XPR36; His6-tagged proteins immobilised on a HTE chip (5000-8000 RU); synthetic peptides as analytes, five concentrations; 10 mM HEPES pH 7.4, 150 mM NaCl, 0.05% Tween 20; 25°C; equilibrium binding fit; both purified
[3] = molecular target: T2, His6-HD-PTP_(Bro1-CC) (1-714), bacterially expressed (human) (UniProt Q9H3S7); assay: co-IP; 20 μl in vitro translated 35S-endofin(1-84)-strep incubated with 5 μg bacterially expressed His6-HD-PTP Bro1-CC in IP2 buffer (20 mM Hepes pH 7.4, 100 mM NaCl, 1 mM MgCl2, 1% Triton X-100), 4°C; anti-His antibody and protein A-sepharose; phosphorimaging; only the target purified
T2 sequence: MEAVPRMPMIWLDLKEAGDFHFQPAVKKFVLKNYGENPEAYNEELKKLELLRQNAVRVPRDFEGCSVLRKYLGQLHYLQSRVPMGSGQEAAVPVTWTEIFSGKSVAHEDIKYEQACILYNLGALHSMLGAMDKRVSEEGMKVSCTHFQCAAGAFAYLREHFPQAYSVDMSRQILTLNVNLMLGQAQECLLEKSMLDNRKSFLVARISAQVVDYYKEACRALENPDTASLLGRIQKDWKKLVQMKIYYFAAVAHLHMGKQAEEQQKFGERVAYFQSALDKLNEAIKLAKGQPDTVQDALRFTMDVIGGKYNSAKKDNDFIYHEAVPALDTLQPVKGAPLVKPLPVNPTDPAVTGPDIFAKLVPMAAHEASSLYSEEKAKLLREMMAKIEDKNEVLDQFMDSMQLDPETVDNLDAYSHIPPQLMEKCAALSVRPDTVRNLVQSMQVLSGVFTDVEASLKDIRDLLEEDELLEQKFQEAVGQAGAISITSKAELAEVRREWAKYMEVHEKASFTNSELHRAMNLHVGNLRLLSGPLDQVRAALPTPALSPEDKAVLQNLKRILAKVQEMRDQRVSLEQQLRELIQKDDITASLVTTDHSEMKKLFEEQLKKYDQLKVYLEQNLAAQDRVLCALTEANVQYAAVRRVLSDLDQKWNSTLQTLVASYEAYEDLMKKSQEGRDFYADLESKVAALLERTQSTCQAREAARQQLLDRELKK

[4] = molecular target: T3, His6-HD-PTP_(Bro1) (1-361) (human, UniProt Q9H3S7 1-361); assay: SPR; ProteOn XPR36; His6-tagged proteins immobilised on a HTE chip (5000-8000 RU); synthetic peptides as analytes, five concentrations; 10 mM HEPES pH 7.4, 150 mM NaCl, 0.05% Tween 20; 25°C; equilibrium binding fit; both purified
T3 construct: HD-PTP/PTPN23, Bro1 domain, residues 1-361; Immobilised by its His6 tag on the HTE chip; also called HD-PTP Bro1 domain; source: E. coli BL21 (DE3), purified (Nickel-beads, MonoQ, Superdex 200); not shown: His6, N-terminal, kept
T3 sequence (looked up): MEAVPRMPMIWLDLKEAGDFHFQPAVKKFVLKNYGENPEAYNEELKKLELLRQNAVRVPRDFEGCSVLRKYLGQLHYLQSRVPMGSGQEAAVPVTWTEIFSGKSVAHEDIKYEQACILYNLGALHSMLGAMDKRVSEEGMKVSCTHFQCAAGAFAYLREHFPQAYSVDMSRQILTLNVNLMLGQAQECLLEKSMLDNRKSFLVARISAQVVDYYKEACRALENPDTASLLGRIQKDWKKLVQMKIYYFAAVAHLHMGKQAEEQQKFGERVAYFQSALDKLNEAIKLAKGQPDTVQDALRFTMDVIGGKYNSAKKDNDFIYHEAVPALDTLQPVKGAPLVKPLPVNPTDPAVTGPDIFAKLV

[5] = molecular target: T2, His6-HD-PTP_(Bro1-CC) (1-714), bacterially expressed (human); assay: as above
[6] = molecular target: HA-HD-PTP (hemagglutinin-tagged HD-PTP, wild type) (human) (UniProt Q9H3S7); assay: co-IP; HA-tagged HD-PTP constructs expressed in cells; lysates in IP1 buffer (25 mM Tris-HCl pH 7.5, 40 mM NaCl, 0.5% IGEPAL); anti-HA immunoprecipitates blotted for endogenous endofin or SARA
[7] = molecular target: HA-HD-PTP (hemagglutinin-tagged HD-PTP, wild type) (human) (UniProt Q9H3S7); assay: co-IP; co-expressed HD-PTP and endofin/SARA (Figure S1B); HD-PTP-myc/endofin-Strep IP from HeLa cells stably expressing HD-PTP-myc induced with doxycyclin

binding [1]: binds
binding [2]: binds
Molecule: full-length endofin, yeast two-hybrid construct (from UniProt Q7Z3T8 1-1539)

binding (HD-PTP-myc (human)): binds
Molecule: FL endofin-Strep-tag (from UniProt Q7Z3T8 1-1539)

binding (His6-Alix_(Bro1) (1-359)): no binding
B1: endofin 22-mer peptide (first 22 residues of endofin) (peptide, UniProt Q7Z3T8 1-22, looked up)
peptide: MDSYFKAAVSDLDKLLDDFEQN
notes: human endofin, first 22 residues; begins 1-MDSYF-5; also called endofin peptide; endofin_(1-22) (WT); source: synthetic peptide (Generon Ltd, UK)

binding [3]: no binding
B2: endofin(1–84/L15P)-strep, in vitro translated (domain or fragment, UniProt Q7Z3T8 1-84)
chain: MDSYFKAAVSDLDKPLDDFEQNPDEQDYLQDVQNAYDSNHCSVSSELASSQRTSLLPKDQECVNSCASSETSYGTNESSLNEKT
modifications: 35S-methionine

binding [4]: no binding
binding [5]: no binding
Molecule: MDSYFKAAVSDLDKPLDDFEQN (peptide, UniProt Q7Z3T8 1-22) [endofin 22-mer peptide containing the L15P mutation]

B3: endogenous SARA (protein, UniProt O95405 1-1425)
chain: MENYFQAEAYNLDKVLDEFEQNEDETVSSTLLDTKWNKILDPPSHRLSFNPTLASVNESAVSNESQPQLKVFSLAHSAPLTTEEEDHCANGQDCNLNPEIATMWIDENAVAEDQLIKRNYSWDDQCSAVEVGEKKCGNLACLPDEKNVLVVAVMHNCDKRTLQNDLQDCNNYNSQSLMDAFSCSLDNENRQTDQFSFSINESTEKDMNSEKQMDPLNRPKTEGRSVNHLCPTSSDSLASVCSPSQLKDDGSIGRDPSMSAITSLTVDSVISSQGTDGCPAVKKQENYIPDEDLTGKISSPRTDLGSPNSFSHMSEGILMKKEPAEESTTEESLRSGLPLLLKPDMPNGSGRNNDCERCSDCLVPNEVRADENEGYEHEETLGTTEFLNMTEHFSESQDMTNWKLTKLNEMNDSQVNEEKEKFLQISQPEDTNGDSGGQCVGLADAGLDLKGTCISESEECDFSTVIDTPAANYLSNGCDSYGMQDPGVSFVPKTLPSKEDSVTEEKEIEESKSECYSNIYEQRGNEATEGSGLLLNSTGDLMKKNYLHNFCSQVPSVLGQSSPKVVASLPSISVPFGGARPKQPSNLKLQIPKPLSDHLQNDFPANSGNNTKNKNDILGKAKLGENSATNVCSPSLGNISNVDTNGEHLESYEAEISTRPCLALAPDSPDNDLRAGQFGISARKPFTTLGEVAPVWVPDSQAPNCMKCEARFTFTKRRHHCRACGKVFCASCCSLKCKLLYMDRKEARVCVICHSVLMNAQAWENMMSASSQSPNPNNPAEYCSTIPPLQQAQASGALSSPPPTVMVPVGVLKHPGAEVAQPREQRRVWFADGILPNGEVADAAKLTMNGTSSAGTLAVSHDPVKPVTTSPLPAETDICLFSGSITQVGSPVGSAMNLIPEDGLPPILISTGVKGDYAVEEKPSQISVMQQLEDGGPDPLVFVLNANLLSMVKIVNYVNRKCWCFTTKGMHAVGQSEIVILLQCLPDEKCLPKDIFNHFVQLYRDALAGNVVSNLGHSFFSQSFLGSKEHGGFLYVTSTYQSLQDLVLPTPPYLFGILIQKWETPWAKVFPIRLMLRLGAEYRLYPCPLFSVRFRKPLFGETGHTIMNLLADFRNYQYTLPVVQGLVVDMEVRKTSIKIPSNRYNEMMKAMNKSNEHVLAGGACFNEKADSHLVCVQNDDGNYQTQAISIHNQPRKVTGASFFVFSGALKSSSGYLAKSSIVEDGVMVQITAENMDSLRQALREMKDFTITCGKADAEEPQEHIHIQWVDDDKNVSKGVVSPIDGKSMETITNVKIFHGSEYKANGKVIRWTEVFFLENDDQHNCLSDPADHSRLTEHVAKAFCLALCPHLKLLKEDGMTKLGLRVTLDSDQVGYQAGSNGQPLPSQYMNDLDSALVPVIHGGACQLSEGPVVMELIFYILENIV
binding [6]: binds

binding [7]: binds
B4: SARA co-expressed with HD-PTP (Figure S1B) (protein, UniProt O95405 1-1425)
chain: MENYFQAEAYNLDKVLDEFEQNEDETVSSTLLDTKWNKILDPPSHRLSFNPTLASVNESAVSNESQPQLKVFSLAHSAPLTTEEEDHCANGQDCNLNPEIATMWIDENAVAEDQLIKRNYSWDDQCSAVEVGEKKCGNLACLPDEKNVLVVAVMHNCDKRTLQNDLQDCNNYNSQSLMDAFSCSLDNENRQTDQFSFSINESTEKDMNSEKQMDPLNRPKTEGRSVNHLCPTSSDSLASVCSPSQLKDDGSIGRDPSMSAITSLTVDSVISSQGTDGCPAVKKQENYIPDEDLTGKISSPRTDLGSPNSFSHMSEGILMKKEPAEESTTEESLRSGLPLLLKPDMPNGSGRNNDCERCSDCLVPNEVRADENEGYEHEETLGTTEFLNMTEHFSESQDMTNWKLTKLNEMNDSQVNEEKEKFLQISQPEDTNGDSGGQCVGLADAGLDLKGTCISESEECDFSTVIDTPAANYLSNGCDSYGMQDPGVSFVPKTLPSKEDSVTEEKEIEESKSECYSNIYEQRGNEATEGSGLLLNSTGDLMKKNYLHNFCSQVPSVLGQSSPKVVASLPSISVPFGGARPKQPSNLKLQIPKPLSDHLQNDFPANSGNNTKNKNDILGKAKLGENSATNVCSPSLGNISNVDTNGEHLESYEAEISTRPCLALAPDSPDNDLRAGQFGISARKPFTTLGEVAPVWVPDSQAPNCMKCEARFTFTKRRHHCRACGKVFCASCCSLKCKLLYMDRKEARVCVICHSVLMNAQAWENMMSASSQSPNPNNPAEYCSTIPPLQQAQASGALSSPPPTVMVPVGVLKHPGAEVAQPREQRRVWFADGILPNGEVADAAKLTMNGTSSAGTLAVSHDPVKPVTTSPLPAETDICLFSGSITQVGSPVGSAMNLIPEDGLPPILISTGVKGDYAVEEKPSQISVMQQLEDGGPDPLVFVLNANLLSMVKIVNYVNRKCWCFTTKGMHAVGQSEIVILLQCLPDEKCLPKDIFNHFVQLYRDALAGNVVSNLGHSFFSQSFLGSKEHGGFLYVTSTYQSLQDLVLPTPPYLFGILIQKWETPWAKVFPIRLMLRLGAEYRLYPCPLFSVRFRKPLFGETGHTIMNLLADFRNYQYTLPVVQGLVVDMEVRKTSIKIPSNRYNEMMKAMNKSNEHVLAGGACFNEKADSHLVCVQNDDGNYQTQAISIHNQPRKVTGASFFVFSGALKSSSGYLAKSSIVEDGVMVQITAENMDSLRQALREMKDFTITCGKADAEEPQEHIHIQWVDDDKNVSKGVVSPIDGKSMETITNVKIFHGSEYKANGKVIRWTEVFFLENDDQHNCLSDPADHSRLTEHVAKAFCLALCPHLKLLKEDGMTKLGLRVTLDSDQVGYQAGSNGQPLPSQYMNDLDSALVPVIHGGACQLSEGPVVMELIFYILENIV
